Measurements as given in PMC9636508.
No constants are given. Whether binding was seen depends on the method and setting. Binding seen in cells or lysates may run through a third protein. Some binding calls cover weakened binding; strength is not graded here.

Chains of the proteins cited; added tags and fusions are not shown. Lines headed by an entry give the natural chain unless they say otherwise; changes in a name come on top. A line that says so, or that is headed by a name, gives the form on record, which may keep a tag or linker. Residues count along the entry.
UniProt Q9UNF0: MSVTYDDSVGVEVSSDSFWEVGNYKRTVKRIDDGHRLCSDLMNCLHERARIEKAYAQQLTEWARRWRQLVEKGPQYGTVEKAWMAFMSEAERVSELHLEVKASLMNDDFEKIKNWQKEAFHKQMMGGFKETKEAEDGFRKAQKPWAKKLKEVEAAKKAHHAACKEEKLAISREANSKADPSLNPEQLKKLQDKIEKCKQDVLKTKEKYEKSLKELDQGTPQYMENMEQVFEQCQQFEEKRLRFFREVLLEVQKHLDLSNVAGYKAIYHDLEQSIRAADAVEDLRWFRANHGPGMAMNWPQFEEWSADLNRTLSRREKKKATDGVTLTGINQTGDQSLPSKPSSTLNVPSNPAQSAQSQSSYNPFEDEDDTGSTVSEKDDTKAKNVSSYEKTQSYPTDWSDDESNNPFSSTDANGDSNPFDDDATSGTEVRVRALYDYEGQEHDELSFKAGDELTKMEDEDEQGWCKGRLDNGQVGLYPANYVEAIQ
PACSIN2 D4 mutant (lacks the SH3 domain, amino acids 430-486): residues 1-429 of Q9UNF0
GST-SH3 (GST-fused SH3 domain of PACSIN2): residues 430-486 of Q9UNF0

Tests used:
[1] = biological target: GST-SH3 (GST-fused SH3 domain of PACSIN2) (human) (UniProt Q9UNF0); assay: pull-down; GST pull-down with the GST-fused SH3 domain of PACSIN2; methods not shown
[2] = biological target: PACSIN2 wild type, overexpressed (human) (UniProt Q9UNF0); assay: co-IP; K562 cells transfected with expression plasmids, lysed after 24 h in NETN buffer (150 mM NaCl, 0.5 mM EDTA, 50 mM Tris pH 7.5, 0.5% NP-40); streptavidin-coated beads or protein A-agarose with primary antibody; western blot
[3] = biological target: PACSIN2 D4 mutant (lacks the SH3 domain, amino acids 430-486) (human) (UniProt Q9UNF0); assay: as above
[4] = biological target: PACSIN2 wild type, overexpressed (human) (UniProt Q9UNF0); assay: co-IP; immunoprecipitation of PACSIN2 and SH3BP1 with expression of full-length Cobll1 or the N-terminus of Cobll1
[5] = biological target: PACSIN2 (endogenous) (human (endogenous in K562)) (UniProt Q9UNF0); assay: co-IP; endogenous proteins; K562 cells

B1: SH3BP1 wild type, overexpressed (protein, UniProt Q9Y3L3 1-701)
chain: MMKRQLHRMRQLAQTGSLGRTPETAEFLGEDLLQVEQRLEPAKRAAHNIHKRLQACLQGQSGADMDKRVKKLPLMALSTTMAESFKELDPDSSMGKALEMSCAIQNQLARILAEFEMTLERDVLQPLSRLSEEELPAILKHKKSLQKLVSDWNTLKSRLSQATKNSGSSQGLGGSPGSHSHTTMANKVETLKEEEEELKRKVEQCRDEYLADLYHFVTKEDSYANYFIRLLEIQADYHRRSLSSLDTALAELRENHGQADHSPSMTATHFPRVYGVSLATHLQELGREIALPIEACVMMLLSEGMKEEGLFRLAAGASVLKRLKQTMASDPHSLEEFCSDPHAVAGALKSYLRELPEPLMTFDLYDDWMRAASLKEPGARLQALQEVCSRLPPENLSNLRYLMKFLARLAEEQEVNKMTPSNIAIVLGPNLLWPPEKEGDQAQLDAASVSSIQVVGVVEALIQSADTLFPGDINFNVSGLFSAVTLQDTVSDRLASEELPSTAVPTPATTPAPAPAPAPAPAPALASAATKERTESEVPPRPASPKVTRSPPETAAPVEDMARRTKRPAPARPTMPPPQVSGSRSSPPAPPLPPGSGSPGTPQALPRRLVGSSLRAPTVPPPLPPTPPQPARRQSRRSPASPSPASPGPASPSPVSLSNPAQVDLGAATAEGGAPEAISGVPTPPAIPPQPRPRSLASETN
[1]
  binding: binds
[2]
  binding: binds
[3]
  binding: no binding
[4]
  binding: binds

B2: SH3BP1 (endogenous) (protein, UniProt Q9Y3L3 1-701)
chain: B1 chain
[5]
  binding: binds

B3: Cobll1 D1 (deletion of amino acids 14-368) (protein, UniProt Q53SF7)
chain: MDGRTPRPQDAPASKIPPHQSDENSRVTALQPVDGVPPDSASEANSPEELSSPAGISSDYSLEEIDEKEELSEVPKVEAENISPKSQDIPFVSTDIINTLKNDPDSALGNGSGEFSQNSMEEKQETKSTDGQEPHSVVYDTSNGKKVVDSIRNLKSLGPNQENVVQNEIIVYPENTEDNMKNGVKKTEINVEGVAKNNNIDMEVERPSNSEAHETDTAISYKENHLAASSVPDQKLNQPSAEKTKDAAIQTTPSCNSFDGKHQDHNLSDSKVEECVQTSNNNISTQHSCLSSQDSVNTSREFRSQGTLIIHSEDPLTVKDPICAHGNDDLLPPVDRIDKNSTASYLKNYPLYRQDYNPKPKPSNEITREYIPKIGMTTYKIVPPKSLEISKDWQSETIEYKDDQDMHALGKKHTHENVKETAIQTEDSAISESPEEPLPNLKPKPNLRTEHQVPSSVSSPDDAMVSPLKPAPKMTRDTGTAPFAPNLEEINNILESKFKSRASNAQAKPSSFFLQMQKRVSGHYVTSAAAKSVHAAPNPAPKELTNKEAERDMLPSPEQTLSPLSKMPHSVPQPLVEKTDDDVIGQAPAEASPPPIAPKPVTIPASQVSTQNLKTLKTFGAPRPYSSSGPSPFALAVVKRSQSFSKERTESPSASALVQPPANTEEGKTHSVNKFVDIPQLGVSDKENNSAHNEQNSQIPTPTDGPSFTVMRQSSLTFQSSDPEQMRQSLLTAIRSGEAAAKLKRVTIPSNTISVNGRSRLSHSMSPDAQDGH
[2]
  binding: no binding
